Measured values taken from the supplement of paper PMC8512760.
Some of the results follow. Most values come without repeats; read them as rough.

The molecules below were run on SUM-149 (assay: cell viability relative to vehicle (% of vehicle); basal-like triple-negative breast cancer lines; higher = less cytotoxic). Conditions: 10 µM; 72 h.
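Further: stably firefly luciferase-GFP labeled cells in 96-well plates, viability read as luciferase photon flux after d-luciferin addition, treated wells normalized to vehicle wells, single-dose high-throughput screen.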

For `CC12CCC(O)CC1=CCC1C2CCC2(C)C(c3cccnc3)=CCC12` (stereo not drawn) [Abiraterone], which cell viability is on record?
Its cell viability is 152.

Which cell viability does the source give for `CC(C)NCC(O)COc1ccc(COCCOC(C)C)cc1.O=C(O)C=CC(=O)O` (stereo not drawn) [Bisoprolol fumarate] here?
The cell viability was 109.

Which cell viability does the source give for `CN(C)C(=O)c1cc2cnc(Nc3ccc(N4CCNCC4)cn3)nc2n1C1CCCC1` here?
The cell viability was 151.

With `Cc1cccc(CN2CCN(C(c3ccccc3)c3ccc(Cl)cc3)CC2)c1.Cl.Cl` (stereo not drawn) [Meclizine 2HCl] as the molecule, how does the cell viability read?
Its cell viability is 91.

For `Cl.Cl.Clc1ccc(Nc2nnc(Cc3ccncc3)c3ccccc23)cc1` [Vatalanib (PTK787) 2HCl], which cell viability is on record?
Its cell viability is 92.4.

With `CNNCc1ccc(C(=O)NC(C)C)cc1.Cl` [Procarbazine HCl] as the molecule, how does the cell viability read?
The cell viability was 124.

For `CC1OC(n2cc(F)c(=O)[nH]c2=O)C(O)C1O` (stereo not drawn) [Doxifluridine], which cell viability is on record?
The cell viability was 85.7.

Which cell viability does the source give for `CC1(C)SC2C(NC(=O)C(NC(=O)N3CCN(S(C)(=O)=O)C3=O)c3ccccc3)C(=O)N2C1C(=O)O.[Na]` (stereo not drawn) [Mezlocillin Sodium] here?
The cell viability was 110.

Which cell viability does the source give for `Cc1ccc(C(=O)C(C)CN2CCCCC2)cc1.Cl` (stereo not drawn) [Tolperisone HCl] here?
Its cell viability is 94.2.

How did the cell viability turn out when `CCOC(=O)C1OC1C(=O)NC(CC(C)C)C(=O)NCCC(C)C` (stereo not drawn) was run?
Its cell viability is 98.6.

For `CN1CCN(c2ccc(C(=O)/N=c3\[nH][nH]c4ccc(Cc5cc(F)cc(F)c5)cc34)c(NC3CCOCC3)c2)CC1` [Entrectinib], which cell viability is on record?
The cell viability was 37.1.

`CC(C)(Oc1ccc(C2CC2(Cl)Cl)cc1)C(=O)O` (stereo not drawn) [Ciprofibrate] was tested. Which cell viability did it give?
Its cell viability is 98.8.

Which cell viability does the source give for `CN1CCC(=C2c3ccccc3CCc3sccc32)CC1.O=C(O)CC(O)C(=O)O` [Pizotifen Malate] here?
Its cell viability is 93.8.
